For this series, the system named is conditionally-immortalized mouse podocyte cell line. Put plainly: Podocyte cytotoxicity assay (Cell Titer-Blue). To be noted: 72 hours, three experiments. On the procedure:
Podocytes are polarized epithelial cells located on the glomerular basement membrane that contribute to the integrity of the filtration barrier. For the purposes of these experiments, they function as an indicator of renal toxicity. Following 72 hours of treatment with each compound concentrations ranging from 30 μM to 3 nM, podocyte viability was assessed by measuring residual metabolic activity (FIG. 30). […] Of the 15 analogs tested, only two, TSA and apicidin, caused sufficient cytotoxicity to allow the calculation of an E50 value. […] Treatment with PTBA or each of 12 structural analogs never decreased podocyte viability below the 50% threshold, even when tested at 30 μM (FIG. 30). […]
The isolation and characterization of conditionally-immortalized mouse podocyte cell line have been previously described (Mundel, P. et al. Rearrangements of the cytoskeleton and cell contacts induce process formation during differentiation of conditionally immortalized mouse podocyte cell lines. Exp Cell Res 236, 248-258, (1997) and Schwartz, E. J. et al. Human immunodeficiency virus-1 induces loss of contact inhibition in podocytes. J Am Soc Nephrol 12, 1677-1684, (2001)). […] After incubation, cytotoxicity was analyzed using the Cell Titer-Blue Cell Viability Assay (Promega) per manufacturer's instructions. […] Fluorescence was read at 79 560Ex/590Em on a Gemini SpectramaxXS (Molecular Devices) plate reader. […]
(In general: The colour change of resazurin is a common sign of viable cells or microbes.)

As for `CC(/C=C/C(=O)NO)=C\[C@@H](C)C(=O)c1ccc(N(C)C)cc1` [TSA, trichostatin A, reference compound], the “mean E50 (concentration where 50% of the exposed podocytes remained viable)” value is 96 nM.

Take `CCC(=O)CCCCC[C@@H]1NC(=O)[C@H]2CCCCN2C(=O)[C@H]([C@@H](C)CC)NC(=O)[C@H](Cc2cn(OC)c3ccccc23)NC1=O` [apicidin, reference compound]: the “mean E50 (concentration where 50% of the exposed podocytes remained viable)” value worked out at 152 nM.

Source of the values: US10160705B2, “Class of HDAC inhibitors expands the renal progenitor cells population and improves the rate of recovery from acute kidney injury” (University of Pittsburgh—Of the Commonwealth System of …, priority 2011, dated 2018).
